The list shows a part of the results. The energies were worked out here from pooled read counts, against the library average; single values are noisy.
target: T1, Pho4 (S. cerevisiae) (UniProt P07270); experiment: relative binding free energy (BET-seq); higher = weaker binding; details: reference: library average
T1 sequence: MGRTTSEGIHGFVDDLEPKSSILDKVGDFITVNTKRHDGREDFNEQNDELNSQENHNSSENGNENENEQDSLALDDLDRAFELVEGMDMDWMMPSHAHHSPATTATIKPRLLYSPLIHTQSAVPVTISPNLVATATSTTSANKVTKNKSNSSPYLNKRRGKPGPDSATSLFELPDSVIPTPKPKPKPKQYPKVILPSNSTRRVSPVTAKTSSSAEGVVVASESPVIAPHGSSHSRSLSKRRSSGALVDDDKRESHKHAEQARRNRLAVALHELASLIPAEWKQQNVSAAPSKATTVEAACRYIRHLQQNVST

Row | Sequence | relative binding free energy
1 | TTGCGCACGTGTAAGG | -0.02 kcal/mol
2 | TATTCCACGTGGCGGG | 0.12 kcal/mol
3 | TATGGCACGTGTCCGG | 0 kcal/mol
4 | TGAGACACGTGTCGTT | 0.17 kcal/mol
5 | TGTCGCACGTGGTAAA | -0.05 kcal/mol
6 | TGGTGCACGTGGCGTG | -0.11 kcal/mol
7 | AGATTCACGTGTGGGC | 0.3 kcal/mol
8 | AGGGGCACGTGGTTGG | -0.13 kcal/mol
9 | GTTTGCACGTGAATTC | 0.31 kcal/mol
10 | TTATACACGTGGGTTC | -0.1 kcal/mol
11 | TATCGCACGTGTTTAA | -0.04 kcal/mol
12 | GAACGCACGTGAGGGT | 0.24 kcal/mol
13 | GTGTTCACGTGGATTT | 0.27 kcal/mol
14 | AGAGTCACGTGATAGA | 0.29 kcal/mol
15 | GTGTGCACGTGGGTGT | -0.18 kcal/mol
16 | GTCCGCACGTGGTAGG | -0.08 kcal/mol
17 | GACTTCACGTGGAGGT | 0.31 kcal/mol
18 | TGTAGCACGTGGATGT | -0.11 kcal/mol
19 | CATAGCACGTGAGGGC | 0.24 kcal/mol
20 | ATCGTCACGTGTTGGG | 0.12 kcal/mol
21 | CGGGTCACGTGGCGTA | -0.02 kcal/mol
22 | ACGTTCACGTGGAGTG | 0.15 kcal/mol
23 | GGGGCCACGTGTGGGA | 0.06 kcal/mol

Row | Sequence | relative binding free energy
24 | TGGGTCACGTGAAGCT | 0.28 kcal/mol
25 | AAACACACGTGGGGGT | -0.07 kcal/mol
26 | GAGTGCACGTGAATGA | 0.47 kcal/mol
27 | TTGTTCACGTGATTAC | 0.4 kcal/mol
28 | GCGGGCACGTGATTGT | 0.08 kcal/mol
29 | TTTAGCACGTGTTTAT | -0.07 kcal/mol
30 | GGCGCCACGTGGTGGT | -0.1 kcal/mol
31 | GTGTCCACGTGGCTTG | 0.01 kcal/mol
32 | TAGGTCACGTGTAGGA | 0.05 kcal/mol
33 | ATTGTCACGTGATAGA | 0.21 kcal/mol
34 | TTTGGCACGTGAGTTG | 0.22 kcal/mol
35 | AATATCACGTGAGGTT | 0.41 kcal/mol
36 | CTTAACACGTGTGAGT | -0.01 kcal/mol
37 | TTTCCCACGTGTGTGT | 0.01 kcal/mol
38 | AATATCACGTGATAGG | 0.19 kcal/mol
39 | ATAAACACGTGTTTGT | -0.09 kcal/mol
40 | GCGGGCACGTGGAGCT | -0.12 kcal/mol
41 | GTAATCACGTGATTTA | 0.19 kcal/mol
42 | GCGAGCACGTGGGGGG | -0.18 kcal/mol
43 | TATAGCACGTGGATGG | -0.08 kcal/mol
44 | GTCAGCACGTGTGTGG | 0.06 kcal/mol
45 | GAATGCACGTGTAATG | 0.21 kcal/mol
46 | TATGTCACGTGACGAT | 0.18 kcal/mol

Row | Sequence | relative binding free energy
47 | ACTATCACGTGGTGTG | -0.03 kcal/mol
48 | GTATTCACGTGGTGTC | 0.33 kcal/mol
49 | TTTTGCACGTGATATT | 0.1 kcal/mol
50 | TGGAACACGTGCGGGG | 0.06 kcal/mol
51 | AATTTCACGTGTTGCG | 0.23 kcal/mol
52 | GGGGTCACGTGTCGCT | 0.09 kcal/mol
53 | TAAAGCACGTGAGTAT | 0.23 kcal/mol
54 | GGGACCACGTGATGTA | 0.15 kcal/mol
55 | CTGTGCACGTGTGAGG | 0.07 kcal/mol
56 | TGGCTCACGTGTTGAG | 0.28 kcal/mol
57 | CCAGGCACGTGTGTTT | -0.01 kcal/mol
58 | GATTACACGTGGATTT | 0.18 kcal/mol
59 | GATATCACGTGTGTGC | 0.19 kcal/mol
60 | GGATGCACGTGCGGTG | -0.04 kcal/mol
61 | AGTATCACGTGTAGGT | 0.15 kcal/mol
62 | GGCAGCACGTGATTAT | 0.33 kcal/mol
63 | ATTCGCACGTGTTTGA | -0.18 kcal/mol
64 | TGTGCCACGTGTACGG | -0.08 kcal/mol
65 | TGACGCACGTGTTGTG | -0.15 kcal/mol
66 | CAGTGCACGTGGTAGT | -0.18 kcal/mol
67 | TAATACACGTGTTGGT | 0.16 kcal/mol
68 | AATTCCACGTGATGTG | 0.14 kcal/mol
69 | TTCAGCACGTGGGGGT | -0.25 kcal/mol

Row | Sequence | relative binding free energy
70 | GGACTCACGTGTCGTG | 0.21 kcal/mol
71 | TGTAACACGTGTTACG | -0.02 kcal/mol
72 | CGGGACACGTGGTCTG | -0.08 kcal/mol
73 | CAGTTCACGTGCTGTT | 0.23 kcal/mol
74 | ATTAGCACGTGGCTTT | -0.17 kcal/mol
75 | TATAACACGTGTATTA | 0.05 kcal/mol
76 | AAAGTCACGTGGGAGC | 0.19 kcal/mol
77 | AGAATCACGTGGATGG | 0.26 kcal/mol
78 | TCTTGCACGTGGGGGA | -0.06 kcal/mol
79 | GGGATCACGTGAGCAG | 0.41 kcal/mol
80 | GAATGCACGTGTTGTT | 0.05 kcal/mol
81 | TTTATCACGTGAATAG | 0.34 kcal/mol
82 | TGTTGCACGTGCGAGG | 0.02 kcal/mol
83 | AGGGGCACGTGAGATC | 0.12 kcal/mol
84 | GGTCTCACGTGTGAAG | 0.38 kcal/mol
85 | GTTGCCACGTGCGGTT | -0.14 kcal/mol
86 | GGCACCACGTGTGGGG | -0.02 kcal/mol
87 | GGTAACACGTGGTTGT | 0.04 kcal/mol
88 | TAAATCACGTGAAGTT | 0.49 kcal/mol
89 | CGTATCACGTGATTAG | 0.38 kcal/mol
90 | GGGGTCACGTGGACAT | 0.15 kcal/mol
91 | AGCATCACGTGTTTAT | 0.17 kcal/mol
92 | TGTTTCACGTGGATGT | 0.27 kcal/mol

Row | Sequence | relative binding free energy
93 | TGAGTCACGTGGCTTG | 0.07 kcal/mol
94 | GGAAGCACGTGGGATG | -0.12 kcal/mol
95 | AGATACACGTGTGGGT | 0.01 kcal/mol
96 | GTAGTCACGTGTTGAC | 0.26 kcal/mol
97 | TGTCCCACGTGGTAGT | -0.12 kcal/mol
98 | ATTTTCACGTGATAGG | 0.23 kcal/mol
99 | TTGTTCACGTGGTACA | 0.07 kcal/mol
100 | TGAGTCACGTGTCTTA | 0.14 kcal/mol
101 | GGCGACACGTGTAGTT | 0.21 kcal/mol
102 | GTGGTCACGTGTTGGA | 0.17 kcal/mol
103 | ATTGTCACGTGATTTT | 0.33 kcal/mol
104 | AAGAACACGTGGATGG | 0.07 kcal/mol
105 | AGGGGCACGTGGGACT | -0.23 kcal/mol
106 | TTTATCACGTGGTAGC | 0.03 kcal/mol
107 | AGTATCACGTGTGCGA | 0.04 kcal/mol
108 | GGTTTCACGTGGTAAA | 0.3 kcal/mol
109 | CAGCTCACGTGGTGGT | 0.21 kcal/mol
110 | TAGGGCACGTGTATCT | -0.15 kcal/mol
111 | GGAGTCACGTGGTCAT | 0.09 kcal/mol
112 | TGGGGCACGTGTTAGC | -0.1 kcal/mol
113 | TTGTCCACGTGGGGTC | 0.03 kcal/mol
114 | GTGGGCACGTGACATG | 0.01 kcal/mol
115 | TGGCGCACGTGAGAGT | 0.19 kcal/mol

Reference: the BET-seq Pho4 binding data (Le et al. 2018)
